Experiment [1] in a line: ATG_ERE_CIS: Attagene CIS-FACTORIAL HepG2 Assay for Estrogen Response Element (ERE) (AID 2282940). The note with it: HepG2 ERE cis-reporter, Attagene RNA transcript; actives raise or lower the signal. Put shortly:
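Measuring endogenous transcription factor output, the assay doses transfected HepG2 cells for 24 hours and quantifies reporter transcripts by fluorescent RT-PCR and capillary electrophoresis, with DMSO as baseline.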

Experiment [2] deals with bovine Estrogen Receptor (ER), ESR1 (gene 407238) (UniProt P49884). Briefly: NVS_NR_bER: NovaScreen (NVS) Nuclear Receptor Binding Assay for bovine Estrogen Receptor (ER) (AID 2283345; active = hit-call score of the fitted dose curve at least 0.9, where 1 is the maximum;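 also: actives lower the bound radioligand count which means they displace the ER ligand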). The gist of the method:
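Cell-free radioligand binding with receptor from bovine uterine membranes, read by scintillation counting 18 h after dosing. Loss of specific binding was scored against DMSO; primary screen at 25 uM in duplicate, actives then run as concentration series.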

The source of these data is PubChem BioAssay (EPA / NIEHS).

A number of entries come with more than one value. The other results are left out here. There may be further records. The records of an entry repeat one measurement in other runs, samples, wells, individuals or studies. Records with an inconclusive call do not appear. The calls were made as follows, unless noted: active = hit-call score of the fitted dose curve at least 0.9, where 1 is the maximum; inactive = score below 0.9. More than one record can exist for a structure, and the calls need not agree.

UniProt P49884, sequence (P49884 whole entry, looked up): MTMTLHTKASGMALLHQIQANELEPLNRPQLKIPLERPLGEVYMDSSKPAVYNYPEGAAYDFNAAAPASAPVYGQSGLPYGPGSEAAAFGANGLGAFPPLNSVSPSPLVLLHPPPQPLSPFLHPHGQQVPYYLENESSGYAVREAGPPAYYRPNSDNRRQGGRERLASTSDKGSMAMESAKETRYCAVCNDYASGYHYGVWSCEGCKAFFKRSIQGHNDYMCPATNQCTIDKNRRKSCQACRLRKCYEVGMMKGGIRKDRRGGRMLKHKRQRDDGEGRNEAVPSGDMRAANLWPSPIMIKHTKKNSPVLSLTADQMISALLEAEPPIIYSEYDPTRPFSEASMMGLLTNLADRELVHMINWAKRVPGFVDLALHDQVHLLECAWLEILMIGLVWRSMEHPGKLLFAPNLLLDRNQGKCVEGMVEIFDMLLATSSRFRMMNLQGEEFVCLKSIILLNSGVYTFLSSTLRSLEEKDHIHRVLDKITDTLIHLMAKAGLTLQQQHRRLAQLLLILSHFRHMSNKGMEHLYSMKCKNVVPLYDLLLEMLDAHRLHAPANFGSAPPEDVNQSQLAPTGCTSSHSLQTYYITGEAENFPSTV

A word on the AC50: it is the concentration giving half of the maximal activity seen. A low value points to activity at low concentration. For the compound `C#C[C@]1(O)CC[C@H]2[C@@H]3CCC4=CC(=O)CC[C@@H]4[C@H]3CC[C@@]21C`, the AC50 entry in experiment [1] is “active: 8.52, 36.4, 30.3, 10.7 nM [separate samples]”; in experiment [2], “active: 2.07 µM, 3.43 µM, 1.21 µM, 973 nM [separate samples]”.
